Source: PMC6919601, “Identification of Plasmodium dipeptidyl aminopeptidase allosteric inhibitors by high throughput screening” (PLoS ONE, 2019)
Hit rate of the full screen: of about 110,000 compounds, about 230 (0.21%) showed an effect of 50% or more. Some of the results follow.

target: DPAP1 (Plasmodium falciparum, UniProt Q8IIJ9); assay: primary screen, percent inhibition; read by cleavage of a fluorogenic dipeptide substrate; higher = more effect of the substance; parameters: species or system P. falciparum D10 trophozoite lysates; single well
Sequence (Q8IIJ9 whole entry, looked up): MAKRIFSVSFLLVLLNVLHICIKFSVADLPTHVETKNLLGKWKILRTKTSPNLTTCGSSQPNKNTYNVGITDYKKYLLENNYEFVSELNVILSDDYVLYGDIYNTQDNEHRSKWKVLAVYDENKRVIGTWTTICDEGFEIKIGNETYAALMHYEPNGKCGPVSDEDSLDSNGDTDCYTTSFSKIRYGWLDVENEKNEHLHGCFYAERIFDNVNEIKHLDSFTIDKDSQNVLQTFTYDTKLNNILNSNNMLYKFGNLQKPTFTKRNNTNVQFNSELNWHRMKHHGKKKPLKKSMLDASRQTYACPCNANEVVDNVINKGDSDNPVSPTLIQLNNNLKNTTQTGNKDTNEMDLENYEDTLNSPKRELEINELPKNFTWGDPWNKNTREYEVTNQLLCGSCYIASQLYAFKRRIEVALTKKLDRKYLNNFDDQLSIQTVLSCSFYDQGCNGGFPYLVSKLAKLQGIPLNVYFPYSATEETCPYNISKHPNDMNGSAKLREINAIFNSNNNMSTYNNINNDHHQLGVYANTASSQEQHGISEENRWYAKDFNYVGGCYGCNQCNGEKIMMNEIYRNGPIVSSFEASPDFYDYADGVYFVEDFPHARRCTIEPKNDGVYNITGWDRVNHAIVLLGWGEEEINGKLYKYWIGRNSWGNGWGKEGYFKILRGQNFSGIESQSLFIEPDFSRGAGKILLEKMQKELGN
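Also: 30 min substrate incubation versus DMSO and 10 µM JCP410 controls.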

| SMILES | % Inhibition @ 10 uM [%] |
| --- | --- |
| CN(Cc1ccccc1)C(=O)CN(c1ccccc1Cl)S(=O)(=O)c1ccccc1 | 0.964 |
| Fc1cccc(C2Nc3cccc4cccc(c34)N2)c1 | -7.27 |
| O=C(c1ccc2c(Cl)c3c(nc2c1)CCCC3)N1CCN(Cc2ccc3c(c2)OCO3)CC1 | -3.99 |
| Cc1cc(C)c(S(=O)(=O)Nc2cc(Cl)ccc2Cl)c(C)c1 | 0.135 |
| O=C(NCc1cccc(Cl)c1)c1nc(O)c2nnn(CC3CCCO3)c2n1 (stereo not shown) | -1.11 |
| COCCNC(=O)/C(C#N)=C/c1c(Oc2ccc(C)cc2)nc2ccccn2c1=O | -1.86 |
| COc1ccccc1-c1nc(S)c2c(n1)Oc1ccccc1C2 | 0.383 |
| CN(C)/C=C1/C(=O)NC(=O)N(c2ccccc2)C1=O | 2.09 |
| O=C(c1ccc(CSc2nc3ccncc3[nH]2)cc1)N1CCN(C2CCCCC2)CC1 | -5.19 |
| COc1ccc(C)cc1-n1cnc2sc(C)c(C)c2c1=O | -8.46 |
| O=C(c1cc(F)c(F)cc1Cl)N1CCN(c2ccc([N+](=O)[O-])c3cccnc23)CC1 | -2.97 |
| O=S1(=O)N=C(NCCCCO)c2ccccc21 | 0.758 |
| CSc1nc(=O)c2c(n1C)NC(=O)CC2c1ccc(F)cc1F (stereo not shown) | 0.596 |
| Cc1[nH]c2ccc(F)cc2c1CCNC(=S)NCc1ccccc1 | -3.94 |
| CCOC(=O)c1noc2ncnc(N3CCCN(Cc4ccccc4Cl)C3)c12 | 4.48 |
| c1ccc(CN2CCC(NC3CCCCCCC3)CC2)cc1 | -1.81 |
| O=C(O)CCC(=O)NCc1ccc(C(=O)O)cc1 | 0.00784 |
| CCCCc1nc(N)c(C#N)c(-c2cccc(Br)c2)c1CCC | 1.88 |
| CCCCCCCn1nc(C)c(C(=O)c2ccccc2)c1C | -7.42 |
| CC1=C(C(=O)Nc2ccc(Br)cc2)C(c2ccc([N+](=O)[O-])cc2)NC(S)=N1 (stereo not shown) | -2.91 |
| COc1ccccc1CNC(=O)c1ccc(CSc2nc3ccncc3[nH]2)cc1 | -5.43 |
| CC1=C(C(=O)Nc2ccccc2C)C(c2ccncc2)n2nc(CCCO)nc2N1 (stereo not shown) | -1.04 |
| COc1ccc(CC(=O)Nc2cccc(C(F)(F)F)c2)cc1 | 4.6 |
| O=C(CSc1n[nH]c2ncnn12)NCCc1ccccc1 | -4.23 |
| CC(C)C(=O)Nc1ccc2oc(-c3ccccc3F)nc2c1 | 6.79 |

| SMILES | % Inhibition @ 10 uM [%] |
| --- | --- |
| CCCCCCCCCC(=O)NC(C)C(=O)O (stereo not shown) | 5.54 |
| Cn1c(=O)[nH]c(=O)c2c1nc1n2CCC(=O)N1Cc1ccccc1 | -10.2 |
| Cc1cc(-c2ccccc2)c(C#N)c(=O)n1C(=O)c1ccccc1F | -4.43 |
| Oc1c2c3ccccc3nc-2c2cccc3c2n1CC3 | -3.04 |
| CC1(C)CC(n2nc(O)c3c2NC(=O)CSC3c2ccc(OCc3ccccc3)cc2)CCO1 (stereo not shown) | 1.25 |
| Cc1nnc(N2CCC(C(=O)NCc3ccccn3)CC2)c2nn(-c3ccccc3)c(C)c12 | 1.97 |
| O=C1c2cccnc2C(=O)N1c1cccc(-c2nc3ccccc3o2)c1 | -1.28 |
| CCC1(CC)C(=O)N=C(Nc2ccc(OC)cc2)NC1=O | 1.66 |
| COc1ccc(CNC(=O)c2cc3c(s2)CS(=O)C3)cc1 (stereo not shown) | -3.94 |
| COc1ccc(C(=O)/N=c2\sc(C)c(-c3ccccc3)n2C)cc1OC | -3.25 |
| Cc1ccc(OCC(O)CN2CCOCC2)c(C)c1 (stereo not shown) | 5.39 |
| Cc1c[n+]([O-])n(-c2ccc(C(=O)O)cc2)n1 | 1.3 |
| COc1cccc(NC(=O)CN(c2ccc(OC)c(Cl)c2)S(C)(=O)=O)c1 | 1.52 |
| CN1/C(=C\C(=O)c2ccco2)C(C)(C)c2ccccc21 | 3.53 |
| CC1(C)Cc2ccccc2C(NC(Cc2ccccc2)C(=O)O)=N1 (stereo not shown) | 0.331 |
| CCN(C(=O)c1ccco1)c1ccccc1C | 3.09 |
| CNC(=O)OCc1cccc(COC(=O)NC)n1 | -3.06 |
| CCOC(=O)C1=C(CN2CCN(Cc3ccccc3)CC2)NC(=O)NC1c1ccccc1 (stereo not shown) | -1.3 |
| COc1cc(C(=O)Nc2ccccc2Br)cc(OC)c1OC | -6.39 |
| COc1cc(CN2CCN(Cc3ccc(C)cc3)CC2)cc2c1OCO2 | 3.5 |
| CC1CN(Cc2ccc(Br)s2)CC(C)O1 (stereo not shown) | 0.215 |
| COc1ccc(C(=O)N2CCC(C(=O)O)CC2)cc1 | -3.74 |
| Cc1cc2ccccc2c(=O)n1CC(=O)NC1CCCCCC1 | 3.54 |
| CCOC(=O)N1CCN(C(=O)C(C)N(c2ccc(OCC)cc2)S(C)(=O)=O)CC1 (stereo not shown) | 2.44 |
| Cc1ccc(-c2nc(CS(=O)(=O)CC(=O)NC3CCCc4ccccc43)c(C)o2)cc1 (stereo not shown) | -3.7 |

| SMILES | % Inhibition @ 10 uM [%] |
| --- | --- |
| Cc1cc(C)cc(C(=O)NCCn2c(C)cc3ccccc32)c1 | 0.205 |
| COc1cc(CNCc2cccnc2)ccc1OCc1ccccc1 | -0.62 |
| N#CC(C#N)NC(=O)[C@H](CS(=O)(=O)Cc1ccccc1)NC(=O)N1CCOCC1 | -0.214 |
| Cc1nn(CCC(=O)N2CCN(c3ccccn3)CC2)c(=O)c2nn(-c3ccccc3)c(C)c12 | -7.13 |
| CC(NC(=O)c1ccncc1)C(c1cccs1)N1CCN(C)CC1 (stereo not shown) | 0.66 |
| CC(C)CC(NC(=O)OCc1ccccc1)C(=O)NC(CCc1ccccc1)C(=O)C1=NCC(c2ccccc2)O1 (stereo not shown) | -7.36 |
| Cc1cc(C)c2c(n1)sc1c(C)c3c(nc12)CCC3 | 3.72 |
| COc1ccccc1NC(=O)C1CCCC1 | -2.34 |
| CCC(=O)Nc1cc2nc(O)cc(C)c2cc1C | 0.777 |
| COc1ccc(S(=O)(=O)Nc2ccc(OC)c(Cl)c2)cc1C | 2.95 |
| COc1ccc(C2CC3=NC(C)=C(C#N)C(c4ccc(Cl)c(Cl)c4)C3=C(O)C2)cc1 (stereo not shown) | -0.436 |
| Cc1ccc2oc(=O)c(-c3nc(-c4ccncc4)no3)cc2c1 | -3.13 |
| c1ccc(-c2ccc(Oc3nc(-c4ccccc4)cc(-c4ccccc4)n3)cc2)cc1 | 0.247 |
| CCCCNC(=O)N1CCN(Cc2ccccc2)CC1 | 0.528 |
| Cc1ccc(C(O)(COc2ccc(F)cc2)c2ccc(C)cc2)cc1 | 2.51 |
| O=C1C(Cl)=C(NCCc2ccccc2)C(=O)N1Cc1ccccc1 | -3.9 |
| CC1(C)CC(=O)C(/C=N/CCN2CCN(C3OC(=O)c4ccccc43)CC2)=C(O)C1 (stereo not shown) | -1.92 |
| CC(NC(=O)/C(=C/c1ccco1)NC(=O)c1cccc(Br)c1)C(=O)O (stereo not shown) | -6.36 |
| CCN(CC)S(=O)(=O)N1CCC(C(=O)NCCCOC)CC1 | 2.79 |
| CC1=C(C#N)C(C(F)(F)F)(C(F)(F)F)NC(C2CCCCC2)=N1 | -3.33 |
| CCc1ccc(C2C(C#N)=C(C)N=C3CC(C)(C)CC(O)=C32)cc1 (stereo not shown) | 1.4 |
| CCn1c(C)c(C)c2cc(C(=O)NCCc3ccccc3C)ccc21 | -7.04 |
| Cn1c(=O)c2c(ncn2CC(=O)NCCN2CCOCC2)n(C)c1=O | 1.26 |
| FC(F)(F)c1cc(-c2ccco2)nc(-n2cnc3ccccc32)n1 | -3.12 |
| COC(=O)c1nc2n(n1)C(c1ccccc1Cl)C1=C(O)CCCC1=N2 (stereo not shown) | -1.62 |

| SMILES | % Inhibition @ 10 uM [%] |
| --- | --- |
| COC(=O)c1ccc2nc(NC(=O)CSc3nc4ccccc4o3)sc2c1 | -6.41 |
| O=c1c(Cl)nc(Cl)c(-c2ccccc2)n1Cc1ccccc1 | 1.43 |
| O=C(Nc1ccccc1)Nc1nc(-c2ccc(F)cc2)cs1 | -1.61 |
| O=C(NCCN1CCOCC1)c1cc(Sc2ccccc2C(F)(F)F)nc2ccccc12 | 6.32 |
| CCN1CCN(CCCNC(=O)c2cc3c(C)nc4ccccc4c3o2)CC1 | -1.7 |
| O=C(Cc1ccc(Cl)cc1)Nc1nonc1-c1ccccc1 | 44.7 |
| CC(Oc1cccc(NC(=O)c2cccs2)c1)C(=O)c1ccccc1 (stereo not shown) | -0.884 |
| COC(=O)C(NC(=O)c1ccccc1Br)C(C)C (stereo not shown) | -4.43 |
| COC(=O)c1cn(C(=O)c2cccs2)c2ccccc12 | 2.56 |
| CC(C(=O)NCc1ccc2c(c1)OCO2)n1ccc2cc(S(=O)(=O)N3CCCCCC3)ccc21 (stereo not shown) | 7.52 |
| CCCc1[nH]nc2c1C(c1ccc(O)c(OCC)c1)C(C#N)=C(N)O2 (stereo not shown) | -2.8 |
| CCC(Sc1nc2nnc(C)c-2c(N)n1-c1ccccc1Cl)C(=O)N1CCOCC1 (stereo not shown) | 2.6 |
| COc1ccc(NC2=C(Cl)C(=O)N(c3ccc(C)cc3)C2=O)c(OC)c1 | 0.385 |
| O=C(O)CCCC(=O)N1CCN(C(c2ccccc2)c2ccccc2)CC1 | -1.28 |
| COc1cc(CN2CCN(CCO)CC2)cc(Br)c1O | 1.83 |
| CCc1ccc(CNC(=O)c2cc3c(Cl)ccc4c3n2CCO4)cc1 | -2.74 |
| O=C(NCc1ccccc1)N1CCN(C(c2ccc(F)cc2)c2ccc(F)cc2)CC1 | -2.85 |
| CCOC(=O)c1c(C)c(-c2ccccc2)n(CC(=O)N2CCN(c3ccccn3)CC2)c1C | 4.69 |
| COc1cccc(Cn2c(=O)n(Cc3ccc(F)cc3)c(=O)c3cccnc32)c1 | -9.16 |
| CC(CCC(=O)O)C1CC[C@H]2C3CCC4CC(=O)CCC4(C)[C@H]3CC(=O)C12C (stereo partly shown) | 0.884 |
| COC(=O)C(O)(c1ccc(O)cc1O)C(F)(F)F (stereo not shown) | -2.66 |
| COc1cc(C(=O)N(C(C)C)C(C)C)cc(OC)c1OC | -4.5 |
| Cc1c(CCC#N)c(NCCCN(C)C)n2c(nc3ccccc32)c1C#N | -1.33 |
| COc1cccc(S(=O)(=O)Nc2ccc(C(=O)N3CCc4cc(OC)c(OC)cc4C3)cc2)c1 | -0.984 |
| Cn1cc(CC(=O)NCC2(c3ccccc3)CCCC2)c2ccccc21 | 0.128 |
